The values that follow come from article PMC4891128.

By UniProt entry, the sequences of proteins in these tests, tags left out. Where a name states a change or a piece, a line headed by the entry shows the natural chain unless it says otherwise.
UniProt P49841: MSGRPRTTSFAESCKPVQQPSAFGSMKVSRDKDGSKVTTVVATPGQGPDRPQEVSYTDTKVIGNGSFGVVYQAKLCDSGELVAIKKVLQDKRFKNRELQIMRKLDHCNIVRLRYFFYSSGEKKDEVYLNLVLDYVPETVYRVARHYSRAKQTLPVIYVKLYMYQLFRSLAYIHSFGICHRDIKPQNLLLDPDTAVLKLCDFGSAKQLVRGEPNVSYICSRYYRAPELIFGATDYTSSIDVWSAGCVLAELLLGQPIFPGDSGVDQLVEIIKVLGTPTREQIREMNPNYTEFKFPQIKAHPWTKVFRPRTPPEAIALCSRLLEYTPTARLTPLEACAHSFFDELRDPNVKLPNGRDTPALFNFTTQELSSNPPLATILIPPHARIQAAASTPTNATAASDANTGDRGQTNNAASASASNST

These are yes or no findings as the source states them, for the method shown. For some of these results: In cells and extracts the contact can be indirect. Some results given as binding are weak or reduced against the parent protein; the word gives no strength.

The target of assay [1] is HA-tagged wild-type GSK3β (UniProt P49841). Briefly: co-IP; HEK293 cells transiently transfected with HA-GSK3β constructs (48 hours); IP with anti-HA antibody overnight at 4°C, protein A/G plus agarose; immunoblot with anti-OLA1 and anti-HA. For orientation: Immunoblotting shows a protein as a band on a membrane.
Assay [2] deals with HA-tagged GSK3β S9A (constitutively active mutant) (UniProt P49841). The assay is described as above.
Assay [3] has as its target GSK3β, endogenous (human (endogenous in HEK293)) (UniProt P49841). Kind of assay: co-IP; protein extracts of non-treated HEK293 cells; IP with anti-GSK3β antibody or control IgG overnight at 4°C, protein A/G plus agarose; immunoblot with anti-OLA1 and anti-GSK3β.
The target in assay [4] is His-tagged human OLA1 recombinant protein (human) (UniProt Q9NTK5). Kind of assay: pull-down; His-OLA1 (500 μg) incubated with various amounts of GST-tagged protein in binding buffer [6.5 mM NaPO4 (pH 7.4), 140 nM NaCl, 0.02% Tween 20] for 1 hour at room temperature; His-OLA1 precipitated with Dynabeads His-tag isolation system; immunoblot with anti-GST; both purified.
Assay [5] addresses FLAG-tagged OLA1 C-terminal deletion mutant without the TGS domain (∆TGS) (human) (UniProt Q9NTK5). Briefly: co-IP; HEK293 cells transiently transfected with FLAG-OLA1 constructs (48 hours); IP with anti-FLAG M2 magnetic beads; immunoblot with anti-GSK3β and anti-OLA1.
In assay [6] the target is FLAG-tagged OLA1 N230A (human) (UniProt Q9NTK5). The assay is described as above.
Assay [7] concerns the target FLAG-tagged wild-type OLA1 (human) (UniProt Q9NTK5). The assay is described as above.

For the substance “Obg-like ATPase 1 (OLA1), endogenous (from UniProt Q9NTK5 1-396)”, the binding result in assay [1], in assay [2] and in assay [3] was “binds” throughout.
For the substance “recombinant GSK3β-GST fusion protein (from UniProt P49841 1-420)”, the binding entry in assay [4] is “binds”.
With “GSK3β, endogenous (from UniProt P49841 1-420)”, the binding entry is on record as “no binding” in assay [5], “binds” in assay [6] and “binds” in assay [7].
